Data from paper doi:10.1101/2023.12.11.571147 (bioRxiv, 2023).

Target: the molecule itself
Assay: thioflavin T aggregation assay

B1: Recombinant Htau40ΔK280 (natural protein)
chain: not shown
binding result: binds
